In this assay the test system is CD2F1 mice, ip reticulum cell sarcoma, survival T/C. The experiment in a line: NCI In Vivo Anticancer Drug Screen. Data for tumor model Reticulum Cell Sarcoma (Kelley Mouse) (intraperitoneal) in CD2F1 (CDF1) mice. The following applies: endpoint: median survival time, schedule: Q01DX010 (ip), vehicle: saline, higher = longer survival. As to the method:
The antitumor activity of compounds was measured in mice bearing transplantable tumors. Survival or tumor size were measured and the results are expressed as the measurement made in the treated group (T) divided by the measurement made in the vehicle treated control group (C). The tumor model used in this assay is Reticulum Cell Sarcoma (Kelley Mouse) (intraperitoneal) in CD2F1 (CDF1) mice

Toxic doses and inconclusive results are not listed. The source holds more than one record for some entries. The list is limited to them. There may be further records. The records of an entry are repeats across runs, samples, wells, individuals or studies.

`CN(C)c1ccc(Nc2c3ccccc3nc3ccccc23)cc1`: the T/C (dose: 36.0 mg/kg/injection) was 110 % of control and 162 % of control. On to `OCC1OC(n2cnc3c(=S)nc[nH]c32)C(O)C1O` (stereo unspecified), for which, for the setting “dose: 40.0 mg/kg/injection”, the T/C is 123 % of control and 172 % of control.

Regarding `O=C(Nc1ccc(C2=NCCN2)cc1)c1ccc(C(=O)Nc2ccc(C3=NCCN3)cc2)c([N+](=O)[O-])c1`, the T/C (dose: 18.0 mg/kg/injection) was 89 % of control and 189 % of control. With `C1CN1c1nc(N2CC2)nc(N2CC2)n1`, the T/C (dose: 0.5 mg/kg/injection) was 106 % of control and 170 % of control.

As to `Nc1nc(SCc2ccccc2)c2[nH]cnc2n1`, for the setting “dose: 32.0 mg/kg/injection”, the T/C is 106 % of control and 190 % of control. In the case of `S=P(N1CCOCC1)(N1CC1)N1CC1`, where the note is “dose: 20.0 mg/kg/injection”, the T/C was 112 % of control and 162 % of control.

The values are drawn from PubChem BioAssay AID340 (DTP/NCI, 2004).
